Assay results: the supplement of paper PMC10126150
Values marked as one replicate rest on one cluster of the flow cell; about a third of the high ones do not repeat.

System: ATP
Assay: switch fluorescence ratio, 500 uM ATP over buffer (Cy3 cluster intensity, sum of 5 cycles each) (fold (ratio)); higher = stronger signal-on switching upon ATP binding; sequences stand for … in TCGTCGGCAGCGTCAGATGTGTATAAGAGACAGTTTTTTTTTTTTTTTTTTTTTTTTT…TC
Settings: aptamer strand: ATP DNA aptamer (quencher-CACCTGGGGGAGTATTGCGGAGGAAGG + anchor), 100 nM annealed; ATP concentration: 500 uM; one replicate
Outline: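 The quencher-labelled ATP aptamer, at 100 nM, was annealed to Cy3-labelled switching-strand clusters on a modified Illumina MiSeq flow-cell. The clusters were imaged in selection buffer, then after 15 min with 500 uM ATP at 22 °C, and this buffer/ATP cycle ran five times with NaOH stripping and re-annealing between runs. Per-cluster fluorescence ratios, summed target-cycle over summed buffer-cycle Cy3 intensity, were averaged per switch-domain sequence. Clusters outside 100-1000 RFU were excluded.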
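Also: ATP exposure 15 min at 22 °C before imaging.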

AGTTTCATAG
switch fluorescence ratio: 1.01

AATTGTAGAT
switch fluorescence ratio: 0.971

CCCTGCACTT
switch fluorescence ratio: 1.42

GGTCGAACT
switch fluorescence ratio: 1.07

TGGGTGAACG
switch fluorescence ratio: 1.01

GCGGCATTTT
switch fluorescence ratio: 0.972

TCTAGCTTGC
switch fluorescence ratio: 1.05

CCTTGTCTT
switch fluorescence ratio: 1.03

CCCGCCTAAT
switch fluorescence ratio: 1.5

TTAGATCAG
switch fluorescence ratio: 1.02

TGTAATAACC
switch fluorescence ratio: 1

ATAAACGGTC
switch fluorescence ratio: 1.03

CAATCTATGG
switch fluorescence ratio: 0.999

CTGTCAAAGT
switch fluorescence ratio: 0.988

TGGCCCTTTA
switch fluorescence ratio: 1.01

TATTTTTTG
switch fluorescence ratio: 0.95

GTACTCGTGC
switch fluorescence ratio: 1.01

TCGTTGAATC
switch fluorescence ratio: 0.991

GAGGCCGATA
switch fluorescence ratio: 1.02

TAAAGCCAGG
switch fluorescence ratio: 1.18

AGTGGGGAAA
switch fluorescence ratio: 0.995

ATTATTGATC
switch fluorescence ratio: 1.02

AATAAAGTAC
switch fluorescence ratio: 1.31

GCGGAATGAT
switch fluorescence ratio: 1.03

CTGGCCCGTA
switch fluorescence ratio: 1.01

GTTTCCGCTA
switch fluorescence ratio: 2.44

TACATGGTGA
switch fluorescence ratio: 1.05

TGTCCATTAC
switch fluorescence ratio: 1.15

AACCAACAAT
switch fluorescence ratio: 1.05

AAGCTTGGGC
switch fluorescence ratio: 1.03

CATGTTGCGG
switch fluorescence ratio: 0.993

AATAGCGATG
switch fluorescence ratio: 0.994

TAACTGGTAT
switch fluorescence ratio: 1.01

GCTTTGATTG
switch fluorescence ratio: 0.99

GGATTAAGTC
switch fluorescence ratio: 1

TTGCTGGTAG
switch fluorescence ratio: 1.06

AAATTCCAAT
switch fluorescence ratio: 1.05

TCATTGACGG
switch fluorescence ratio: 1.06

ATTCCCGTGA
switch fluorescence ratio: 1.12

AAGATGACAG
switch fluorescence ratio: 0.992

CGTTTCCCTT
switch fluorescence ratio: 1.01

CAGTATTCGT
switch fluorescence ratio: 0.967

CGGGACGAG
switch fluorescence ratio: 0.992

TGGCAGTCGA
switch fluorescence ratio: 1.05

CATAGGCTC
switch fluorescence ratio: 0.993

TCAAATGAAG
switch fluorescence ratio: 1.03

TTAAGGAAAC
switch fluorescence ratio: 1.04

AGGTCCATCG
switch fluorescence ratio: 0.991

TTAGTGCTCT
switch fluorescence ratio: 0.99

TGGCCTAACA
switch fluorescence ratio: 1.02

CGCGAATGAC
switch fluorescence ratio: 1.7

TTGGGCACTC
switch fluorescence ratio: 1.02

CTTTTCTCAG
switch fluorescence ratio: 0.981

AGGAAGTCGT
switch fluorescence ratio: 0.972

CAAGTCCAGC
switch fluorescence ratio: 1.04

TTGGGTGTCG
switch fluorescence ratio: 0.99

CTCGAAACCG
switch fluorescence ratio: 1.03

GCATTTCCTG
switch fluorescence ratio: 0.975

CCGAAGGGCG
switch fluorescence ratio: 0.974

AAGCGCCAG
switch fluorescence ratio: 0.979

CGCTCACGAT
switch fluorescence ratio: 1.05

CTACTGTCGT
switch fluorescence ratio: 1.01

GACGTTGAAA
switch fluorescence ratio: 1.02

TCAGCCTGGT
switch fluorescence ratio: 0.989

AAAATTTTCC
switch fluorescence ratio: 1.02

TCTGATGTC
switch fluorescence ratio: 0.96

GTATCCTCCA
switch fluorescence ratio: 1.07

TGTGCTCTGA
switch fluorescence ratio: 0.969

GGTGACCCGG
switch fluorescence ratio: 0.996

TGAATGCCAA
switch fluorescence ratio: 1.02

TTTGCTACCT
switch fluorescence ratio: 1.17

TTAGACAAGA
switch fluorescence ratio: 0.997

GATGGGGTGC
switch fluorescence ratio: 0.985

ATGTGTTTCA
switch fluorescence ratio: 0.973

ATTGTGCGTT
switch fluorescence ratio: 0.979

GTAGTGGGGA
switch fluorescence ratio: 1.01

TTTGCGAAGA
switch fluorescence ratio: 1

GGCTGGTGAT
switch fluorescence ratio: 1.02

GAACTTTTTC
switch fluorescence ratio: 1.4

GCAGTAGCGC
switch fluorescence ratio: 1.04

ACTAGGAGTT
switch fluorescence ratio: 0.988

CGACCGAGTA
switch fluorescence ratio: 1.07

CTAGTTTGT
switch fluorescence ratio: 0.994

CCGTGGTCTG
switch fluorescence ratio: 0.988

CGCACAGCTT
switch fluorescence ratio: 1.02

GAAGTGGGCA
switch fluorescence ratio: 0.977

ACTAGTTTAC
switch fluorescence ratio: 1.03

ATCTTAGGTG
switch fluorescence ratio: 1.05

TCATTCTTCG
switch fluorescence ratio: 1.01

CGTATCGATA
switch fluorescence ratio: 0.992

ATCTCGGGAT
switch fluorescence ratio: 0.943

GCGTCAGACG
switch fluorescence ratio: 1.01

ACCGGTATAA
switch fluorescence ratio: 1

CAGTAGTCCT
switch fluorescence ratio: 1.03

AAAACTCTAG
switch fluorescence ratio: 1.06

ATACCTGCAA
switch fluorescence ratio: 1.95

GGATCAGGCG
switch fluorescence ratio: 0.965

AGAATCTCAC
switch fluorescence ratio: 1.03

TATGCAGTCG
switch fluorescence ratio: 0.983

CATTGGACAT
switch fluorescence ratio: 0.977

TAAGGTCAGC
switch fluorescence ratio: 0.978

ACCGGCAATT
switch fluorescence ratio: 1.2

CGAAATAAAG
switch fluorescence ratio: 0.985

TATCGAACAG
switch fluorescence ratio: 1.04

CAGATTTTCG
switch fluorescence ratio: 1.02

GCAGTACAGC
switch fluorescence ratio: 1.03

AGAAGTCATG
switch fluorescence ratio: 0.966

TAGCTTACCT
switch fluorescence ratio: 1.28

CAACCGGCTA
switch fluorescence ratio: 1.2

CTAATAGTCT
switch fluorescence ratio: 1.06

TTAGAGGCA
switch fluorescence ratio: 0.98

ATATTTTCC
switch fluorescence ratio: 1.09

AGCTAGTGTT
switch fluorescence ratio: 0.995

GGCTCACCCT
switch fluorescence ratio: 1.06

TAACATAAGG
switch fluorescence ratio: 1.01

CGGCCGGTGA
switch fluorescence ratio: 1.07

TCATAGCTTT
switch fluorescence ratio: 1.02

ACCTACGCCC
switch fluorescence ratio: 1.54

CACATGCTGA
switch fluorescence ratio: 1

AAGCGTGTAG
switch fluorescence ratio: 1.08

ATAGACGGTC
switch fluorescence ratio: 1.09

TCGTCATCGC
switch fluorescence ratio: 1.11

CAGTCAATAT
switch fluorescence ratio: 2.41

ATCACGGCGA
switch fluorescence ratio: 1.03

AAGCAGACCG
switch fluorescence ratio: 0.974

TAACCGAAT
switch fluorescence ratio: 0.971

TGATGGCTGG
switch fluorescence ratio: 0.999

TTTTAATGGC
switch fluorescence ratio: 1.35

TAGTGGTCCC
switch fluorescence ratio: 0.981

GATACAACGT
switch fluorescence ratio: 1.01

GCGGATTTCC
switch fluorescence ratio: 0.999

CGGACCTTGA
switch fluorescence ratio: 1.01

TTAAACACAG
switch fluorescence ratio: 1.05

CTCTTTGCTA
switch fluorescence ratio: 1.1

CGAGTAGTTC
switch fluorescence ratio: 1.01

TAGCATGAGG
switch fluorescence ratio: 0.995

ATAGGTGGGA
switch fluorescence ratio: 0.988

TAGGTGAGTG
switch fluorescence ratio: 1.03

TTGACGTCAT
switch fluorescence ratio: 1.36

ACCTCAATCT
switch fluorescence ratio: 1.13

ATATGGAC
switch fluorescence ratio: 1.01

CGCGTAACTG
switch fluorescence ratio: 0.975

AGATTTAAAT
switch fluorescence ratio: 1.01

AATTAACAGA
switch fluorescence ratio: 1.04

ACACTCAGTT
switch fluorescence ratio: 1.04

TTGCTCACAG
switch fluorescence ratio: 0.972

TCGGCTCAGT
switch fluorescence ratio: 0.979

TCTACCAACT
switch fluorescence ratio: 1.09

TGCATCTTAG
switch fluorescence ratio: 1.01

CTAAAGTTTT
switch fluorescence ratio: 1.02

CTTTCGGAAG
switch fluorescence ratio: 0.994

CACCATAAAG
switch fluorescence ratio: 0.972

ATATCATCTT
switch fluorescence ratio: 0.974

TTTGCCGGCC
switch fluorescence ratio: 0.947

CTGGGCAAAT
switch fluorescence ratio: 1.25

AGGAAAATCC
switch fluorescence ratio: 0.996

TTTCTAGTAA
switch fluorescence ratio: 0.988
